First the molecules themselves.
B1: Caulobacter ParB omega fusion; a variant is named by its letters at X, in order, B8GW30 (parent)
chain: MESVVVGEPGMSEGRRGLGRGLSALLGEVDAAPAQAPGEQLGGSREAPIEILQRNPDQPRRTFREEDLEDLSNSIREKGVLQPILVRPSPDTAGEYQIVAGERAWRAAQRAGLKTVPIMVRELDDLAVLEIGIIENVQRADLNVLEEALSYKVLMEKFERTQENIAQTIGKSXSHVANXMRLLXLPDEVQSYLVSGELTAXHARAIAAAADPVALAKQIIEGGLSVRETEALARKAPNLSAGKSKGGRPPRVKDTDTQALESDLSSVLGLDVSIDHRGSTGTLTITYATLEQLDDLCNRLTRGI

In all, about 81,000 sequences were measured (“one-hybrid fitness for binding NBS DNA”: median about -0.1, highest 2% from about 0.36 on). The list shows a part of the results.

Variants of B1 are the subject of the assay. The experiment in a line: one-hybrid fitness for binding NBS DNA (the Noc-binding site; scaled: cognate 1, non-cognate 0); higher = stronger binding. The conditions noted are these: with NBS DNA site. An outline of the steps:
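Selection: bacterial one-hybrid in E. coli USO, HIS3 reporter with the site 19 bp from the promoter, 48 hours at 37°C on M9-minus-histidine plus 0.1 mM IPTG and 5 mM 3-AT. Libraries were Caulobacter ParB with four randomised specificity codons, sequenced on Illumina before and after selection. Fitness is the rescaled log change in variant-to-wild-type read ratio, anchored to the cognate and non-cognate sites.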
For the variant RLQE, the “one-hybrid fitness for binding NBS DNA” value is at most 0.2.
Under VRTF stands at most 0.2.
In the case of QHSL, the “one-hybrid fitness for binding NBS DNA” value is at most 0.2.
In the case of QSEN, the “one-hybrid fitness for binding NBS DNA” value was at most 0.2.
Take MEMV: the “one-hybrid fitness for binding NBS DNA” value was at most 0.2.
For GGST, the “one-hybrid fitness for binding NBS DNA” value is at most 0.2.
Turning to RKVN, the “one-hybrid fitness for binding NBS DNA” value was at most 0.2.
As for SNLY, the “one-hybrid fitness for binding NBS DNA” value is at most 0.2.
With LENC, the “one-hybrid fitness for binding NBS DNA” value is at most 0.2.
Under VEAG stands at most 0.2; under HGVS, at most 0.2; under QCTI, at most 0.2.
Under NRGE stands at most 0.2; under VRLE, at most 0.2.
Turning to ASIT, the “one-hybrid fitness for binding NBS DNA” value was at most 0.2.
In the case of GMMM, the “one-hybrid fitness for binding NBS DNA” value was at most 0.2.
For QMGW, the “one-hybrid fitness for binding NBS DNA” value was at most 0.2.
Under TWLP stands at most 0.2; under CAEG, at most 0.2.
LYVL: the “one-hybrid fitness for binding NBS DNA” value is at most 0.2.
Turning to VSVY, the “one-hybrid fitness for binding NBS DNA” value was at most 0.2.
With ASGW, the “one-hybrid fitness for binding NBS DNA” value was at most 0.2.
Under ASHN stands at most 0.2; under RLST, 0.46.
Under ETHY stands at most 0.2; under FGSI, at most 0.2.
Under DSMV stands at most 0.2; under PHNY, at most 0.2.
For the variant GDTG, the “one-hybrid fitness for binding NBS DNA” value is at most 0.2.
On to KRTR, for which the “one-hybrid fitness for binding NBS DNA” value is 0.563.
On to KMVA, for which the “one-hybrid fitness for binding NBS DNA” value was at most 0.2.
With LIAC, the “one-hybrid fitness for binding NBS DNA” value was at most 0.2.
Under ALVD stands at most 0.2; under CPMR, at most 0.2; under PKCF, at most 0.2.
With TMQC, the “one-hybrid fitness for binding NBS DNA” value was at most 0.2.
As for MKYR, the “one-hybrid fitness for binding NBS DNA” value stood at 0.298.
Under QANG stands at most 0.2; under MVGD, at most 0.2; under TSSV, at most 0.2.
Under TKQP stands at most 0.2.
Regarding SNWR, the “one-hybrid fitness for binding NBS DNA” value is at most 0.2.
As to HPHP, the “one-hybrid fitness for binding NBS DNA” value was at most 0.2.
On to IKLV, for which the “one-hybrid fitness for binding NBS DNA” value was at most 0.2.
Consider QLII, for which the “one-hybrid fitness for binding NBS DNA” value was at most 0.2.
Under WPTL stands at most 0.2; under GQNR, at most 0.2; under QIPV, at most 0.2.
Consider EHNC, for which the “one-hybrid fitness for binding NBS DNA” value is at most 0.2.
As to QKSF, the “one-hybrid fitness for binding NBS DNA” value was at most 0.2.
Under FRNC stands at most 0.2; under FTPS, at most 0.2; under SKVC, at most 0.2.
Under YLSS stands at most 0.2; under WWLS, at most 0.2.
For DPNC, the “one-hybrid fitness for binding NBS DNA” value was at most 0.2.
With VHQS, the “one-hybrid fitness for binding NBS DNA” value was at most 0.2.
Under RTHL stands at most 0.2.
Regarding LAYN, the “one-hybrid fitness for binding NBS DNA” value was at most 0.2.
As for KRHQ, the “one-hybrid fitness for binding NBS DNA” value was at most 0.2.
With CFKR, the “one-hybrid fitness for binding NBS DNA” value was at most 0.2.
TYVF: the “one-hybrid fitness for binding NBS DNA” value is at most 0.2.
With SASM, the “one-hybrid fitness for binding NBS DNA” value was at most 0.2.
Turning to YWDG, the “one-hybrid fitness for binding NBS DNA” value is at most 0.2.
As for TAQW, the “one-hybrid fitness for binding NBS DNA” value is at most 0.2.
VYPR: the “one-hybrid fitness for binding NBS DNA” value is at most 0.2.
Regarding RRGM, the “one-hybrid fitness for binding NBS DNA” value is 0.237.
Consider LRTH, for which the “one-hybrid fitness for binding NBS DNA” value is at most 0.2.
On to TVCY, for which the “one-hybrid fitness for binding NBS DNA” value was at most 0.2.
In the case of MDSR, the “one-hybrid fitness for binding NBS DNA” value is at most 0.2.
On to NIWG, for which the “one-hybrid fitness for binding NBS DNA” value was at most 0.2.
Take CLLR: the “one-hybrid fitness for binding NBS DNA” value is at most 0.2.
Under AHVG stands at most 0.2.
Under QYGN stands at most 0.2; under SGHL, at most 0.2; under QTNF, 0.244.
Under PSIW stands at most 0.2; under TYNI, at most 0.2; under PPAK, at most 0.2.
For NQGR, the “one-hybrid fitness for binding NBS DNA” value is at most 0.2.
In the case of TTMY, the “one-hybrid fitness for binding NBS DNA” value is at most 0.2.
On to MRRI, for which the “one-hybrid fitness for binding NBS DNA” value was at most 0.2.
With SAWT, the “one-hybrid fitness for binding NBS DNA” value was at most 0.2.
Turning to YVKR, the “one-hybrid fitness for binding NBS DNA” value is at most 0.2.
Regarding SALW, the “one-hybrid fitness for binding NBS DNA” value is at most 0.2.
CMPT: the “one-hybrid fitness for binding NBS DNA” value is at most 0.2.
Consider HMGS, for which the “one-hybrid fitness for binding NBS DNA” value was at most 0.2.
With SHDG, the “one-hybrid fitness for binding NBS DNA” value was at most 0.2.
Consider SPMR, for which the “one-hybrid fitness for binding NBS DNA” value is at most 0.2.
Turning to QLWI, the “one-hybrid fitness for binding NBS DNA” value is at most 0.2.
Regarding KIQC, the “one-hybrid fitness for binding NBS DNA” value is at most 0.2.
For the variant RCRA, the “one-hybrid fitness for binding NBS DNA” value was determined as 0.422.
Consider EAWR, for which the “one-hybrid fitness for binding NBS DNA” value was at most 0.2.
Turning to MVSG, the “one-hybrid fitness for binding NBS DNA” value is at most 0.2.
For the variant CLCS, the “one-hybrid fitness for binding NBS DNA” value is at most 0.2.
As to CWYT, the “one-hybrid fitness for binding NBS DNA” value was at most 0.2.
With LCTT, the “one-hybrid fitness for binding NBS DNA” value is at most 0.2.
For the variant ISQK, the “one-hybrid fitness for binding NBS DNA” value is at most 0.2.
Turning to ANQV, the “one-hybrid fitness for binding NBS DNA” value is at most 0.2.
PSYC: the “one-hybrid fitness for binding NBS DNA” value is at most 0.2.
For the variant RTNP, the “one-hybrid fitness for binding NBS DNA” value was at most 0.2.
Under ISNT stands at most 0.2; under TYAP, at most 0.2; under NTTC, at most 0.2.
On to CSNS, for which the “one-hybrid fitness for binding NBS DNA” value is at most 0.2.
Under PLWC stands at most 0.2; under EDPE, at most 0.2; under PLTM, at most 0.2.
Under KIKL stands at most 0.2.
Consider RPPF, for which the “one-hybrid fitness for binding NBS DNA” value is at most 0.2.
In the case of WESH, the “one-hybrid fitness for binding NBS DNA” value was at most 0.2.
PYQC: the “one-hybrid fitness for binding NBS DNA” value is at most 0.2.
VLQR: the “one-hybrid fitness for binding NBS DNA” value is at most 0.2.
With CIHR, the “one-hybrid fitness for binding NBS DNA” value was at most 0.2.
In the case of VMPT, the “one-hybrid fitness for binding NBS DNA” value was at most 0.2.
Consider TKML, for which the “one-hybrid fitness for binding NBS DNA” value was at most 0.2.
Regarding GLLP, the “one-hybrid fitness for binding NBS DNA” value was at most 0.2.
For the variant PQSE, the “one-hybrid fitness for binding NBS DNA” value was at most 0.2.
Take VTMN: the “one-hybrid fitness for binding NBS DNA” value is at most 0.2.
Regarding AHQR, the “one-hybrid fitness for binding NBS DNA” value is at most 0.2.
As for VDYK, the “one-hybrid fitness for binding NBS DNA” value is at most 0.2.
On to CCLT, for which the “one-hybrid fitness for binding NBS DNA” value was at most 0.2.
Turning to EVPG, the “one-hybrid fitness for binding NBS DNA” value was at most 0.2.
Regarding RINA, the “one-hybrid fitness for binding NBS DNA” value is at most 0.2.
Consider DACC, for which the “one-hybrid fitness for binding NBS DNA” value was at most 0.2.
Turning to QAPN, the “one-hybrid fitness for binding NBS DNA” value is at most 0.2.
As for DKYT, the “one-hybrid fitness for binding NBS DNA” value is at most 0.2.
As to RQWS, the “one-hybrid fitness for binding NBS DNA” value is at most 0.2.
Under AYNC stands at most 0.2; under PNTI, at most 0.2; under EPLS, at most 0.2.
Under SGRG stands at most 0.2; under KFRG, at most 0.2; under VFRC, at most 0.2.
Turning to ERER, the “one-hybrid fitness for binding NBS DNA” value was at most 0.2.
YNTA: the “one-hybrid fitness for binding NBS DNA” value is at most 0.2.
LPRR: the “one-hybrid fitness for binding NBS DNA” value is at most 0.2.
As to ADRA, the “one-hybrid fitness for binding NBS DNA” value was at most 0.2.
In the case of FESG, the “one-hybrid fitness for binding NBS DNA” value was at most 0.2.
NVVS: the “one-hybrid fitness for binding NBS DNA” value is at most 0.2.
Under NELT stands at most 0.2; under SWKY, at most 0.2.
With GYRS, the “one-hybrid fitness for binding NBS DNA” value is at most 0.2.
Under QTGG stands 0.204.
Under MSLN stands at most 0.2.
Under REEA stands at most 0.2; under RASK, at most 0.2.
On to LNKW, for which the “one-hybrid fitness for binding NBS DNA” value was at most 0.2.
MVRF: the “one-hybrid fitness for binding NBS DNA” value was at most 0.2.
SAGS: the “one-hybrid fitness for binding NBS DNA” value was at most 0.2.
Under HHQR stands at most 0.2; under CPAR, at most 0.2.
Under HKNV stands at most 0.2.

For the origin of these results see a collection of fitness landscapes (doi:10.1016/j.celrep.2020.107928).
